The source gives no read counts; variants with many changes may rest on few reads.
B1: LINE1-mini (parent)
chain: GGCAGAGCUCAACACAGCGUGGCAAAGUGGCUGUGGCUAGACUGCC

Variants of: B1
Assay: self-cleavage, relative activity (ratio to wild type); higher = more cleavage; in vitro, sequencing; the parent is a self-cleaving ribozyme

Variant | self-cleavage
GUCAGAGCUCAACACAGCGUGGCAAAGUGGCGGUGGCUAGACGCCU | 0.01
GUCAGAGCUCAACACAGCGUGACAAAGUGGCUGCGGCUAGACUGCC | 0.01
GUCAGAGCUCAACACAGCGUGGCAAAGUGGCUGUGGCUACUCUGCC | 0.03
GUCAGAGCUCAACACAGCGUGGCAAAGUGGCAGUAGAUAGACUGCC | 0.06
GUCAGAGCUCAACACAGCGUGCCAAAGUAGGUGUGGCUAGACUGCC | 0.04
GUCAGAGCUCAACACAGCGUGGCAAAGCUGCUGUGGCUAGACUGCC | 0.09
GUCAGAGCUCAACACAGCGUGGCAAAGUGGCUAUGGCUAGACCGCC | 0.01
GUCAGAGCUCAACACAGCGGGGCAAAGUGUCUGUUGCUAGACUGCC | 0.03
GUCAGAGCCCAACACAGCGUGGCAAAGUGGCUGUUUCUAGACUGCC | 0.02
GUCAGAGCUCAACACAGCGUGGCAAAGUGGCUGUGGCACGACUGCC | 0.2
GUCAGAGCUCAACACAGCGUGGCAAAAUGGUUGUGACUAGUCUGCC | 0.01
GUCAGAGCUCAACACAGCGUGGCAAAGUGUCUGUGGCUAUACUGCC | 0.02
GUCAGAGCUCAACACAGCGUGGCAAAGUGUCUGUGGCUAAACUGCC | 0.03
GUCAGAGCUCAACACAGCGUGGCAAAUUGCCUGUGGCUAGACUGCC | 0.06
GUCAGAGCCCAACACAGCGUGGCAAAGUGGCUGUGGCUAGACUUCC | 0
GUCAGAGCUCAACACAGCGUGGCAAAGUGGCUGGGGGUAGACUGCC | 0
GUCAGAGCUCAACACAGCGUGGCAAAGCGGCUGUGCCUAGACUGCC | 0.05
GUCAGAGCUCAACACAGCGUGGCAAAGUGACUGUGGCUAGAGUGCC | 0.06
GUCAGAGCCCAACACCGCGUGGCAAAGUGGAUGUGGCUACACUGCC | 0.01

Variant | self-cleavage
GUCAGAGCUCAACACAGCGAUGCGAAGUGGCUGUGGCUAGAUUGCC | 0.03
GUCAGAGCUCAACACAGCGUGGCAAAGUUGCUGUGGCUAGACUGCU | 0.03
GUCAGAGCGCAACACAGCGUGGCAAAGUGGCUGUGGCUAGACCGCC | 0.01
GUCAGAGCUCAACACAGCGUGGCAAAGUGGCUGAGCCUAGACUGCC | 0.01
GUCAGAGCUCAACACAGCGUGGCAAACUGGCUGUGUCUAGAAUGCC | 0.02
GUCAGAGCUCAACACAGCGUGACAAAGUGGCUGUGGCUAGACGGCC | 0
GUCAGAGCUCAACACAGCGUGGCAAAGUGGCAGUGGCUAGAGUCCC | 0.01
GUCAGAGCUCAACACAGCGAGGCAAAGUGGCUGUGAUUAGACUGCC | 0.02
GUCAGAGCUCAACACAGCGGGGAAAAGUGGCUGUGGCUAGACUGCU | 0.03
GUCAGAGCCCAACACAUCGUGGCAAAGUGGCUGUUGCUAGACUGCC | 0.07
GUCAGAGCUCAACACAGCGUGGCAAAGUCGCUGUUGUUAGACUGCC | 0.02
GUCAGAGCUCAACACAGCGCGGCAAAGUGGCUGGGGCUAGACUGUC | 0
GUCAGAGCGCAACACAUGGUGGCAAAGUGGCUGUGGCUUGACUGCC | 0.1
GUCAGAGCUCAACACAGCGAGGAAAAGUGGCUGUUGCUACACUGCC | 0.03
GUCAGAGCCCAACACACCGUGGCAAAUUGGCUGUGGCUAGACUGCC | 0
GUCAGAGCGCUACAGAGCGUGUCAAAGUGGCUGUGGCUAGACUGCC | 0.01
GUCAGAGCGCACCACAGCGUGACAAACUGGCUGUGGAUAGACUGCC | 0
GUCAGAGCUCAACACAGCGUGGCAAAGUGGCGGUGGCUAGACGGUC | 0.01
GUCAGAGCACAACCCAGCGUGGCAAAGUGGCUGUGGCUAGACUUCC | 0.05

Variant | self-cleavage
GUCAGAGCUCAACACAGCGUGGCAAAGUGGCUUUGGCUAGACAGCC | 0
GUCAGAGCUCAACACAGCGUGGCAAAGUGGCUUUGGCAAGAGUGCC | 0.04
GUCAGAGCCCAACACAGUGUGGCAAAGUGGCGGUGGCUAGACUGCA | 0.03
GUCAGAGCUCAACACAGCGUGGCAAAGCUACUGUGGCUAGACUGCA | 0.03
GUCAGAGCCGAACACAGCGUGGCAAAGUGGCUGUGGCGAGACUGCC | 0.01
GUCAGAGCUCAACACAGCGUGGCAAAGUGUCUGUGGCUAGAUUGCC | 0.56
GUCAGAGCUCAACACAGCGCGGCAAAGUGGCUGUGGUUAGACUGCC | 0.02
GUCAGAGCUCAACACAGCGUGGCAAAUUGGCUGUGGUUAGUAUGCC | 0.06
GGACGAGCUAAACACAGAUUGGCAAAUUGGCUCUGGCUAGCCUGCC | 0
GUCAGAGCUCAACACAGCGUGGCAAAGUGGCUUUGCCUAGACUGUU | 0
GUCAGAGCACAACACAGCGUGGCAAAGUGGCUGAGGCUAGACUGCC | 0.13
GUCAGAGCACAACACAGCGUGACAAAGUGGCUGUGACUAGACUACC | 0.04
GUCAGAGCGCAACACAGCGUGGCAAAGUGGCUGUGACUAUACUGCC | 0.05
GUCAGAGCUCAACACAGCGUGGCAAAUUGGCUGUGGCAAGACUGCC | 0.02
GUCAGAGCUCAACACAGCGUGGCAAAGUGACGUUGGCUAGACUGCC | 0.02
GUCAGAGCUCAACACAGCGUGGCAAAGUGUCUGUUGCUAGACUGUC | 0.02
GUCAGAGCUCAACACAGCGUGGCAAAGUGGCUGGUGCUAGACUGAC | 0.03
GUCAGAGCUCAACACAGCGUGGCAAAGUGGCUACGACUAGACUGCC | 0.02

— the RNAGym collection of RNA variant scans (doi:10.7554/elife.90254)
